The supplement of paper PMC3334620
Whole data set: some 33,000 sequences, median “E-score (-0.5 to 0.5)” near -0.035, cut for the highest 2% near 0.34. The list shows a part of the results.

The sequences below were run against T1, Mot3 (UniProt P54785) (assay: PBM E-score (8-mer binding enrichment) (E-score (-0.5 to 0.5)); higher = stronger / more preferred TF binding; most listed sequences are background and not binding sites). Conditions: protein concentration: 200 nM; construct: GST-full length.
T1 sequence: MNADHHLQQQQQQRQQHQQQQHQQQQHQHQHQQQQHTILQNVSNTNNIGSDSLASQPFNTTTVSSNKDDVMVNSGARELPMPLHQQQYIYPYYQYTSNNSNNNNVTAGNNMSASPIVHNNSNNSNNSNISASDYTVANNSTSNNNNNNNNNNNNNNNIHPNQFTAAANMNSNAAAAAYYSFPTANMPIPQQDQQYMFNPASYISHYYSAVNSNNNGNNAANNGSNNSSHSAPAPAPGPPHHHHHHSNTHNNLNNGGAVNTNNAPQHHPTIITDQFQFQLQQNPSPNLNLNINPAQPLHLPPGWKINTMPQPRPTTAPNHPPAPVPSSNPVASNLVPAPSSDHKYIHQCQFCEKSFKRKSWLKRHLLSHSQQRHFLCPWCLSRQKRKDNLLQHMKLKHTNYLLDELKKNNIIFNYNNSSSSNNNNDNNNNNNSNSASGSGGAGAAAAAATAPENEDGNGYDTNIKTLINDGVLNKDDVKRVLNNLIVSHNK
Procedure: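 Universal 'all 10-mer' protein binding microarrays (Agilent AMADID 015681) probed with GST-tagged S. cerevisiae TFs (full-length or DBD) made by in vitro transcription/translation (PURExpress), about 100-200 nM. Bound TF was detected with fluorescent anti-GST. Each ungapped 8-mer (which stands for itself and its reverse complement) is scored by the PBM enrichment score (E-score), a modified Wilcoxon-Mann-Whitney statistic from -0.5 to +0.5, computed with the Universal PBM Analysis Suite. Scale: above 0.35 generally sequence-specific binding.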

Sequence | PBM E-score
ATACCTAG | 0.131
AAGAGGAG | -0.133
CGGCGCCA | -0.137
CCTGACAC | 0.025
ACGCCCCG | -0.265
CAGAGCCG | -0.157
GATAGTGC | -0.0565
ACTAATGG | -0.161
CATCCCAC | -0.212
GATTCAAA | -0.0689
GATGTGAA | 0.211
TAGGAACA | 0.416
AACGCGTT | 0.335
GTTCCCCA | -0.0776
AAACTTCC | -0.145
GATATACC | -0.117
CATAACGC | 0.188
CATAGCGC | 0.0893
AGATATCA | 0.0215
TGGTATAA | 0.0814
GAACTTCC | -0.0463
CGTTTGAG | -0.0011
CCACACGA | -0.0566
AAGCTCAG | -0.215
TAAGCTCA | -0.00546

Sequence | PBM E-score
AAACGAAA | 0.0838
GAAGCAAC | 0.0752
CGCGGTGA | -0.163
AATCGCGC | -0.0999
AAAATTCG | 0.116
ACCCTTAT | 0.117
CCCCCGGA | -0.397
AGGAGGGC | -0.206
CTGGGAGC | -0.166
CCATTCCA | -0.0555
CCATACCC | -0.243
CGGAGACA | -0.142
CTGTGGGC | 0.0151
GGCACCGA | 0.356
GCGAAATA | 0.0149
AAAACATC | 0.151
CAACAGAG | 0.068
AACGCGTC | 0.194
AGGGGTGC | -0.121
CATCTGAG | -0.186
AGGCACAC | 0.487
GATAAGCA | -0.00323
ACGCAGCA | 0.113
CTTCCGGC | 0.0464
CCTCGAGG | -0.336

Sequence | PBM E-score
CACTGGCC | -0.267
CTCCGCAA | -0.0257
CGTTTATA | 0.12
AGAAGATA | 0.106
CCATTAAA | 0.0359
CACTATCG | -0.148
TGATGGCA | -0.0645
AGCTTCGG | -0.247
ATGATTGC | 0.167
CGATACTA | 0.0333
CCAGGTTA | -0.00113
GTTCAAAA | 0.0223
CAAAGACC | -0.0124
CACCCATA | -0.215
GATGGACA | -0.0995
GAATCGGC | -0.269
TCCGAAAA | -0.261
ACTCTCGG | -0.197
ACACCTCA | -0.0741
ACCGGCTC | -0.299
ACCCTGAG | -0.0403
GACGCACA | -0.131
ATAACTAG | 0.0326
CTATGATC | 0.0348
ACGTGACC | -0.0113

Sequence | PBM E-score
GTGAGAGA | 0.0715
CAGACTCC | -0.335
CGCCAGAC | -0.05
ACAAGTAA | 0.169
CTTTATAC | 0.198
GAATACCC | -0.137
ATGACCTA | -0.00208
CGCGCCCC | -0.316
AGATTAGA | 0.0126
GAGCTGCA | -0.352
AAGTTCGT | -0.0605
ATGATTCA | -0.0564
CCGTCATC | -0.297
ACACGATC | 0.347
CATCCGCC | -0.314
AGGCTGGA | -0.233
ACTAATCT | -0.137
GTGGTACA | -0.00186
AACAGGAG | 0.0835
CGCGTGAC | 0.0817
TGAAATAA | 0.213
CTAAAATC | -0.0313
GCTTTTAA | 0.0026
TCGCGAAA | 0.00419
CCGCATCG | -0.235

Sequence | PBM E-score
TACGAGAA | 0.0768
AGTAGAAT | 0.0735
CTGGTCTA | -0.195
GCCGACTA | -0.0944
CGACATCC | -0.071
AAGGCAAA | 0.479
ACGTTCTA | 0.0886
AGATTTCC | 0.113
ACCGCTTG | 0.00252
CAACGGGA | -0.0539
CCATGACG | -0.184
CTGCGCTA | -0.15
GCCGGAGA | -0.247
AGACGAGC | -0.245
GCCTCCAA | -0.00806
AGACACAT | -0.0431
CCCCGTCG | -0.239
CTCGATAA | -0.0356
AAAAGAAC | 0.107
ATAAAGGA | 0.0864
ACATTTGG | -0.0323
GTAGCTGA | -0.146
CGAAGGTA | 0.366
GCACAGAC | 0.195
GGAAGCTA | -0.325

Sequence | PBM E-score
CTGGTTGA | -0.102
CCAATAAA | -0.0259
GACCTGTA | -0.0895
AGTCCGGA | -0.0421
AGTAGCGA | -0.0559
AAAATAAT | 0.2
AGACACAG | -0.00149
CACCACGA | -0.126
ACGGCATG | -0.00947
CAGTATGA | -0.0857
CGGTATGC | -0.227
CACAGTAA | 0.0633
GTTAACCA | 0.195
GCCCGCCC | -0.145
GCTGAGCA | 0.141
CTTTAAGA | 0.0024
GAGCGACA | 0.104
GAAAGTGC | -0.154
ATGTGACG | 0.0311
ACGCAGAC | 0.107
ATGGGTGG | -0.155
ACCGTTCA | -0.025
ATTATTCC | 0.0513
ACTCACAT | 0.0353
GTGCAAGA | 0.112

Sequence | PBM E-score
TGCCGCCA | -0.237
GAAGGAAC | 0.468
AAGTCGGA | 0.0846
AATCAGAT | 0.0335
GAGCGCAC | -0.307
GTCATATA | 0.101
GAATTTCC | 0.0437
ATCAGGCC | -0.0425
CGTATACG | 0.0487
AACTAGAC | -0.0673
AGCTCGAG | -0.191
ACCTACGG | -0.0217
AAAAATAC | 0.0348
ACAAACTC | 0.0169
GGATATGA | -0.218
CGGAAGAG | -0.134
GTGAACTA | 0.108
CTCTCGAA | 0.0432
AGGGAGGG | -0.269
GGCTATCA | -0.135
CTCTACCA | -0.192
AGAGGGAT | -0.183
